The source of these data is a collection of fitness landscapes (doi:10.1016/j.celrep.2020.107928).

Sequences and labels used below:
B1: Caulobacter ParB omega fusion; a variant is named by its letters at X, in order, B8GW30 (parent)
chain: MESVVVGEPGMSEGRRGLGRGLSALLGEVDAAPAQAPGEQLGGSREAPIEILQRNPDQPRRTFREEDLEDLSNSIREKGVLQPILVRPSPDTAGEYQIVAGERAWRAAQRAGLKTVPIMVRELDDLAVLEIGIIENVQRADLNVLEEALSYKVLMEKFERTQENIAQTIGKSXSHVANXMRLLXLPDEVQSYLVSGELTAXHARAIAAAADPVALAKQIIEGGLSVRETEALARKAPNLSAGKSKGGRPPRVKDTDTQALESDLSSVLGLDVSIDHRGSTGTLTITYATLEQLDDLCNRLTRGI

Whole data set: some 81,000 sequences, median “one-hybrid fitness for binding parS DNA” near -0.17, cut for the highest 2% near 0.51. The list shows a part of the results.

Variants of B1 are the subject of the assay. As to the kind of experiment: one-hybrid fitness for binding parS DNA (scaled: cognate 1, non-cognate 0); higher = stronger binding. Particulars: with parS DNA site. Put shortly: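 On M9-minus-histidine containing 0.1 mM IPTG and 5 mM 3-AT, E. coli USO cells with a HIS3 reporter, site 19 bp from the promoter, grew 48 hours at 37°C to select Caulobacter ParB libraries randomised at four specificity codons. Plasmids from before and after were Illumina-sequenced, with three replicate libraries pooled and variants under 10 reads left out. Fitness is the log change in variant-to-wild-type read ratio, rescaled against cognate and non-cognate.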
For LFAS, the “one-hybrid fitness for binding parS DNA” value was at most 0.2.
The result for KPFG reads at most 0.2.
Consider NRQF, for which the “one-hybrid fitness for binding parS DNA” value is at most 0.2.
Take PGGT: the “one-hybrid fitness for binding parS DNA” value is at most 0.2.
HTLT: the “one-hybrid fitness for binding parS DNA” value is at most 0.2.
With GTIS, the “one-hybrid fitness for binding parS DNA” value was at most 0.2.
Turning to TWFN, the “one-hybrid fitness for binding parS DNA” value was at most 0.2.
RKTQ: the “one-hybrid fitness for binding parS DNA” value is at most 0.2.
Consider CDDV, for which the “one-hybrid fitness for binding parS DNA” value was at most 0.2.
As to RNGI, the “one-hybrid fitness for binding parS DNA” value was at most 0.2.
The result for MAWT reads at most 0.2; that for VAVW, at most 0.2; that for KWNV, at most 0.2.
In the case of WESK, the “one-hybrid fitness for binding parS DNA” value was at most 0.2.
RRSN: the “one-hybrid fitness for binding parS DNA” value is 0.695.
Take KDGS: the “one-hybrid fitness for binding parS DNA” value was at most 0.2.
For EGRS, the “one-hybrid fitness for binding parS DNA” value is at most 0.2.
For the variant GKQF, the “one-hybrid fitness for binding parS DNA” value is at most 0.2.
Consider PQQD, for which the “one-hybrid fitness for binding parS DNA” value is at most 0.2.
As for EGPR, the “one-hybrid fitness for binding parS DNA” value was at most 0.2.
As for ANAT, the “one-hybrid fitness for binding parS DNA” value is at most 0.2.
As to FSNE, the “one-hybrid fitness for binding parS DNA” value is at most 0.2.
In the case of GEWA, the “one-hybrid fitness for binding parS DNA” value was at most 0.2.
As for VVKA, the “one-hybrid fitness for binding parS DNA” value is at most 0.2.
As to GCKY, the “one-hybrid fitness for binding parS DNA” value is at most 0.2.
Regarding MEHR, the “one-hybrid fitness for binding parS DNA” value was at most 0.2.
HQQT: the “one-hybrid fitness for binding parS DNA” value is at most 0.2.
The result for HATI reads at most 0.2.
Turning to APLH, the “one-hybrid fitness for binding parS DNA” value was at most 0.2.
DDTE: the “one-hybrid fitness for binding parS DNA” value is at most 0.2.
To ICLC belongs at most 0.2; to PQNS, at most 0.2.
TLTR: the “one-hybrid fitness for binding parS DNA” value was at most 0.2.
For VTGT, the “one-hybrid fitness for binding parS DNA” value was at most 0.2.
To ETTY belongs at most 0.2; to PCDV, at most 0.2.
Turning to TIEI, the “one-hybrid fitness for binding parS DNA” value is at most 0.2.
Take VCSG: the “one-hybrid fitness for binding parS DNA” value is at most 0.2.
To RMKP belongs at most 0.2; to AVMA, at most 0.2.
With ESTG, the “one-hybrid fitness for binding parS DNA” value was at most 0.2.
Regarding ETTM, the “one-hybrid fitness for binding parS DNA” value is at most 0.2.
To RNND belongs at most 0.2; to EMSA, at most 0.2; to NTDQ, at most 0.2.
On to QTMS, for which the “one-hybrid fitness for binding parS DNA” value was at most 0.2.
As to HVSP, the “one-hybrid fitness for binding parS DNA” value was at most 0.2.
Take RRKR: the “one-hybrid fitness for binding parS DNA” value is at most 0.2.
As to NYIL, the “one-hybrid fitness for binding parS DNA” value is at most 0.2.
The result for FTDY reads at most 0.2.
As for SMWT, the “one-hybrid fitness for binding parS DNA” value is at most 0.2.
The result for RKLN reads 0.351; that for HFAD, at most 0.2.
GCAL: the “one-hybrid fitness for binding parS DNA” value was at most 0.2.
As for RYRF, the “one-hybrid fitness for binding parS DNA” value is at most 0.2.
Consider GEKY, for which the “one-hybrid fitness for binding parS DNA” value was at most 0.2.
Turning to RHAC, the “one-hybrid fitness for binding parS DNA” value was 0.933.
In the case of MVIT, the “one-hybrid fitness for binding parS DNA” value is at most 0.2.
The result for MYAK reads at most 0.2; that for WLII, at most 0.2; that for YMPL, at most 0.2.
Take PHIF: the “one-hybrid fitness for binding parS DNA” value was at most 0.2.
As for AVRY, the “one-hybrid fitness for binding parS DNA” value was at most 0.2.
Consider SKMV, for which the “one-hybrid fitness for binding parS DNA” value was at most 0.2.
For the variant AYPY, the “one-hybrid fitness for binding parS DNA” value is at most 0.2.
Turning to NVAC, the “one-hybrid fitness for binding parS DNA” value is at most 0.2.
Consider FHSF, for which the “one-hybrid fitness for binding parS DNA” value was at most 0.2.
To TEMV belongs at most 0.2; to PGMS, at most 0.2; to QGVN, at most 0.2.
Consider GQQF, for which the “one-hybrid fitness for binding parS DNA” value was at most 0.2.
For SARM, the “one-hybrid fitness for binding parS DNA” value was at most 0.2.
To HYRT belongs at most 0.2; to WGSL, at most 0.2; to AAQT, at most 0.2.
As to TGVS, the “one-hybrid fitness for binding parS DNA” value was at most 0.2.
YCFS: the “one-hybrid fitness for binding parS DNA” value was at most 0.2.
Turning to GLDN, the “one-hybrid fitness for binding parS DNA” value was at most 0.2.
With AHFG, the “one-hybrid fitness for binding parS DNA” value was at most 0.2.
Turning to ESRH, the “one-hybrid fitness for binding parS DNA” value is at most 0.2.
On to DATE, for which the “one-hybrid fitness for binding parS DNA” value is at most 0.2.
Consider YCSS, for which the “one-hybrid fitness for binding parS DNA” value was at most 0.2.
Regarding VILG, the “one-hybrid fitness for binding parS DNA” value was at most 0.2.
For the variant CEHT, the “one-hybrid fitness for binding parS DNA” value was at most 0.2.
